Measurements as given in PubChem BioAssay AID485344 (National Center for Advancing Translational Sciences (NCATS), 2010).
Hit rate of the full screen: of about 340,000 compounds, about 6,900 (2%) were called active. Rule as the data show it: active = inhibition above about 30%; inactive = below that, where a call was filed. This is a selection; strong and weak results do not stand in their true shares. Where no call is shown, the source filed none.
Also: 0% is about no effect.

These molecules were tested against D(2) dopamine receptor (Homo sapiens) (UniProt P14416) (assay: HTS Assay for Allosteric Antagonists of the Human D2 Dopamine Receptor: Primary Screen for Antagonists). Details: HEK293 TREx D2 cells, calcium flux, dopamine EC80; at 10 µM; stronger effect = higher value.
Chain of UniProt P14416 (P14416 whole entry, looked up): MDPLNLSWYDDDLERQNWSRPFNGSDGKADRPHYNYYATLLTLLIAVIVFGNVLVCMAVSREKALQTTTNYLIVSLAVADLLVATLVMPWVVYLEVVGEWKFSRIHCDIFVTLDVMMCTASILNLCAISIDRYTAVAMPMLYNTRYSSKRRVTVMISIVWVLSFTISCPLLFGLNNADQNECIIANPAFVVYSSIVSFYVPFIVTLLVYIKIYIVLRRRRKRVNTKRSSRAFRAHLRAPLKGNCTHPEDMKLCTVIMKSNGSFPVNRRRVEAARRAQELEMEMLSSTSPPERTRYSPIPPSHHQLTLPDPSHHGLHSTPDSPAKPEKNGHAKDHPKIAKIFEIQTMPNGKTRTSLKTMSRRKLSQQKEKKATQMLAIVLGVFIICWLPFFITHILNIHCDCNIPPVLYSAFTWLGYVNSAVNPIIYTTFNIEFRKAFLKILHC
Procedure, shortened: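 Calcium flux kinetic readout in an inducible HEK293 TREx D2 line plated overnight at 30 C. After 180 s compound exposure, an EC80 dopamine challenge follows with another 180 s kinetic read to detect antagonism.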
`CC(C)(C)c1ccc(OCc2cc(=O)n3c4c(sc3n2)CCCC4)cc1` showed an inhibition of 6.64%.
`COc1cccc(NC(=O)c2oc3ccc(S(=O)(=O)N4CCC5(CC4)OCCO5)cc3c2C)c1` was tested, and the inhibition was 3.02%.
`COc1ccc(-c2noc(CSc3nnc(C)n3-c3ccc(C)cc3)n2)cc1` was tested, and the inhibition was -8.25%.
`CN(CCOc1ccc(Cl)cc1)Cc1cccc(S(=O)(=O)N(C)C)c1` was tested, and the inhibition was active: 48.3%.
For `COc1ccc(N2CC(C(=O)Nc3ccccc3-c3nc(-c4ccc(C)cc4)no3)CC2=O)cc1` (configuration not stated), the inhibition was -2.01%.
For `CCn1cnc2cc(NC(=O)c3ccc(C)cc3)ccc21`, the inhibition was active: 31.5%.
Molecule `CCCSc1nc2c(c(=O)[nH]1)C(c1ccc(O)c(OCC)c1)CC(=O)N2` (configuration not stated) has an inhibition of 11%.
`COc1ccc(C(=O)NCCc2nc3ccccc3[nH]2)cc1` showed an inhibition of 1.01%.
`Cn1c(=O)c2c(nc(NCc3ccccc3)n2Cc2ccc(Cl)c(Cl)c2)n(C)c1=O` showed an inhibition of 1.03%.
`Cc1cc(C(C)(C)C)cc(C)c1CC1=NCCN1` was tested, and the inhibition was active: 50.1%.
Work on `Cc1ccccc1NC(=O)CSc1nc2ccc(NC(=O)c3ccco3)cc2s1` yielded an inhibition of 18.1%.
Molecule `Clc1ccc(-c2noc3ncnc(N4CCCCC4)c23)cc1` has an inhibition of -0.725%.
Work on `CCOc1cc(Cl)c(S(=O)(=O)n2cc(C)nc2CC)cc1Cl` yielded an inhibition of -5.09%.
In the case of `COc1ccc(C2CC(c3ccccc3)=NN2C(=O)COC(=O)c2cc(S(=O)(=O)N3CCOCC3)ccc2Cl)cc1` (configuration not stated), the inhibition is reported as active: 32.1%.
`CCN(CCCCOC(=O)c1ccc(OC)c(OC)c1)C(C)Cc1ccc(OC)cc1` (configuration not stated) was tested, and the inhibition was active: 43.6%.
With `CN(C)c1ccc(CNS(=O)(=O)c2csc(C(N)=O)c2)cc1` the inhibition was -10.8%.
`O=C(NCC(c1ccco1)S(=O)(=O)c1cccs1)c1ccc(C(F)(F)F)cc1` (configuration not stated) gave an inhibition of 7.88%.
Molecule `CCn1cc2nc(SCc3ccccc3)n(Cc3ccc(C)cc3)c(=O)c2n1` has an inhibition of -6.07%.
With `COc1cccc(NC(=O)Nc2cc(-c3cn4cccnc4n3)ccc2OC)c1` the inhibition was -3.06%.
`COc1cccc(N2C(=O)CSC23C(=O)N(Cc2ccccc2F)c2ccccc23)c1` (configuration not stated) gave an inhibition of 2.19%.
`Cc1cccc(NC(=O)C2CCN(S(=O)(=O)c3c(C)noc3/C=C/c3ccco3)CC2)c1C` was tested, and the inhibition was -3.34%.
For `COc1ccc(-c2nc(SCCOc3cc(C)ccc3C(C)C)n3[nH]c(=O)cc3n2)cc1`, the inhibition was -1.26%.
Work on `COc1ccc2c(CNCCc3ccccc3OC)c(C(=O)O)n(Cc3ccc(F)cc3Cl)c2c1` yielded an inhibition of -15.2%.
With `CSc1cccc(NC(=O)N2CCN(S(=O)(=O)c3ccc4c(ccn4C)c3)CC2)c1` the inhibition was 23.2%.
For `COc1ccc(C2=NS(=O)(=O)N(C)C(C(=O)NC(C)c3ccccc3)=C2)cc1OC` (configuration not stated), the inhibition was 22.9%.
Molecule `O=C(CSc1nc(-c2ccccc2)no1)N1CCN(c2ccc(F)cc2)CC1` has an inhibition of -3.38%.
Work on `CC1=C(C(=O)OC2CCCC2)C(c2ccc(Cl)cc2)CC(=O)N1` (configuration not stated) yielded an inhibition of 0.463%.
`Cc1cc(C)cc(NC(=O)CN(c2cccc(C)c2C)S(=O)(=O)c2ccccc2)c1` showed an inhibition of -5.48%.
In the case of `Cc1cc2c(cc1S(=O)(=O)CCC(=O)N(C)Cc1ccccc1)OCC(=O)N2`, the inhibition is reported as 13.2%.
Molecule `CCOc1cccc(C2c3[nH]c4ccccc4c3CCN2C(=O)Cc2cccc(OCC)c2OCC)c1` (configuration not stated) has an inhibition of 1.52%.
`CC1CCc2nc(NC(=O)Cc3ccc(Cl)cc3)sc2C1` (configuration not stated) was tested, and the inhibition was -18.8%.
With `O=C(c1n[nH]c2ccccc12)N1CCOCC1` the inhibition was active: 38.5%.
`C#Cc1ccc(CN2CCC(Oc3ccc(C(=O)NCc4ccccn4)cc3)CC2)cc1` was tested, and the inhibition was active: 36.4%.
`CCOC(=O)C1=C(C)NC(=S)N(C(C)=O)C1c1ccccc1` (configuration not stated) was tested, and the inhibition was active: 32.1%.
For `Cc1cc(C)cc(NC(=O)c2cc3c(=O)n(Cc4ccco4)ccc3nc2C)c1`, the inhibition was 4.85%.
In the case of `O=C(OCC1CCCO1)c1ccc2c(c1)N(Cc1cccc(F)c1)C(=O)c1ccccc1S2(=O)=O` (configuration not stated), the inhibition is reported as -3.53%.
`Cc1cc(-c2ccc(C)c(S(=O)(=O)NCCCN3CCN(c4ccccc4)CC3)c2)on1` was tested, and the inhibition was active: 73.4%.
`CCC(=O)N1CCc2cc(Br)cc(S(=O)(=O)N3CCN(c4cccc(Cl)c4)CC3)c21` showed an inhibition of 6.21%.
For `Cc1nc2c(-c3ccc(F)cc3)c(C)nn2c(C)c1CCC(=O)NCc1cccc(Cl)c1`, the inhibition was 24.2%.
Molecule `COc1cccc(CNC(=O)c2ccc3c(c2)sc2nc(-c4ccccc4)cn23)c1OC` has an inhibition of 7.21%.
With `CCOc1ccccc1CNC(=O)c1cc2oc3ccccc3c2n1CC` the inhibition was -12.9%.
`O=c1[nH]c2ccc(S(=O)(=O)Nc3cc(Cl)ccc3O)cc2o1` gave an inhibition of 6.77%.
`Cc1ccc(-c2nc3scc(CCNS(=O)(=O)c4c(C)noc4C)n3n2)cc1` showed an inhibition of -18.3%.
With `COc1cc(NC(=O)CCCN2C(=O)CCn3nc(-c4cn(C)c5ccccc45)cc32)cc(OC)c1` the inhibition was 3.78%.
`Fc1ccc(Nc2nc(-c3ccc(F)cc3)c3c(n2)-c2ccccc2OC3)cc1` gave an inhibition of 26.7%.
`O=C(c1cnc(N2CCCCC2)c2ccccc12)N1CCN(c2ccc(F)cc2)CC1` gave an inhibition of 18.3%.
For `COc1cccc(C(=O)Nc2ccc3nc(SCC(=O)N4CCc5ccccc54)sc3c2)c1`, the inhibition was -23.7%.
For `Cc1sc2c(c1C)c(=O)n(-c1ccc(Cl)cc1)c(=O)n2CC(=O)c1ccccc1`, the inhibition was -15.6%.
`Cc1ccc(-n2ncc(C(=O)N(C)Cc3ccccc3)c2-n2cccc2)cc1` was tested, and the inhibition was 8.53%.
`Cc1ccccc1NC(=O)c1sc(Cl)nc1-c1ccccc1` was tested, and the inhibition was active: 30.7%.
For `O=C(c1ccco1)N1CCN(CC2CC3C=CC2C3)CC1` (configuration not stated), the inhibition was active: 83.8%.
`CC(CNC(=O)c1cc2ccccn2n1)c1ccccc1` (configuration not stated) was tested, and the inhibition was 2.55%.
Molecule `COc1ccc(Cl)cc1NC(=O)c1cc2nc(-c3ccc(C)cc3)cc(C(F)(F)F)n2n1` has an inhibition of -13.3%.
For `Cc1cc(Br)ccc1NC(=O)C(NS(=O)(=O)c1cccs1)c1ccccc1` (configuration not stated), the inhibition was -6.93%.
In the case of `Cc1ccc(S(=O)(=O)Oc2ccccc2N2C(=O)C3CC=CCC3C2=O)cc1` (configuration not stated), the inhibition is reported as active: 40.4%.
In the case of `CCOc1ccc(N2CC(C(=O)Nc3ccccc3F)CC2=O)cc1` (configuration not stated), the inhibition is reported as active: 33.7%.
Molecule `NS(=O)(=O)c1ccc(CCNC(=O)CCn2c(=O)c3cccn3c3cccnc32)cc1` has an inhibition of -8.3%.
With `Cc1ccc(-c2cn3c(n2)sc2cc(C(=O)NC4CCCCC4)ccc23)cc1` the inhibition was 0.791%.
In the case of `Cc1ccc(NC(=O)/C=C/c2cccc(C(F)(F)F)c2)cc1`, the inhibition is reported as active: 68.5%.
`COc1ccc(CCNC(=O)CCn2c(=O)c3cccn3c3ccc(F)cc32)cc1OC` was tested, and the inhibition was 11.5%.
With `CCc1cc(C(=O)NCC(c2cccs2)N2CCOCC2)sc1C` (configuration not stated) the inhibition was active: 31.4%.
Work on `CCOC(=O)C1=C(CN2CCCCC2)NC(=O)NC1c1ccc(OC)cc1` (configuration not stated) yielded an inhibition of -2.67%.
